The results in this text go back to the supplement of paper PMC12230231.

± gives the standard deviation of the averaged measurements. Restriction of a single-cycle SIVsab GFP reporter by TRIM5α v1-loop variants in CRFK cells. Human variants: read share among cells still uninfected after two challenges over input, higher = gained restriction. Rhesus variants: share among infected cells over input, higher = lost restriction. Reporter dose not given per row. No active / inactive call per row; the paper calls a change when both replicates lie above its controls (mean + 2 SD of stop or wild-type variants, or the top frameshift score). Residues outside the varied loop are taken from Swiss-Prot. The paper reads the human single-substitution scores as noise; they and the rhesus combinations repeat poorly (rank correlation 0.3 to 0.4), indel scores repeat only for the top variants, rhesus substitutions well (0.9).

The test system of this data set is SIVsab (simian immunodeficiency virus of sabaeus monkeys), single-cycle GFP reporter, in CRFK cells. Description: enrichment among uninfected cells over input (fold); higher = stronger restriction. The note with it: library: insertions and deletions. The procedure: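 Pools of CRFK cells expressing variants of the TRIM5α v1 loop were challenged with the single-cycle reporter, sorted by GFP and sequenced; mean of two replicates.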
With “MASGILVNVKEEVTCPICLELLTQPLSLDCGHSFCQACLTANHKKSMLDKGESSCPVCRISYQPENIRPNRHVANIVEKLREVKLSPEGQKVDHCARHGEKLLLFCQEDGKVICWLCERSQEHRGHHTFLTEEVAREYQVKLQAALEMLRQKQQEAEELEADIREEKASWKTQIQYDKTNVLADFEQLRDILDWEESNELQNLEKEEEDILKSLTNSETEMVQQTQSLRELISDLEHRLQGSVMELLQGVDGVIKRTENVTLKKPETFPKNQRRVFRAPDLKGMLEVFRELTDVRRYWVDVTVAPNNISCAVISEDKRQVSSPKPQIIYGARGQTFVNFNYCTGILGSQSITSGKHYWEVDVSKKTAWILGVCAGFQPDAMCNIEKNENYQPKYGYWVIGLEEGVKCSAFQDSSFHTPSVPFIVPLSVIICPDRVGVFLDYEACTVSFFNITNHGFLIYKFSHCSFSQPVFPYLNPRKCGVPMTLCSPSS [human TRIM5α, 3-codon deletion at 334]”, the enrichment is 0.916 ± 0.075.

With “MASGILVNVKEEVTCPICLELLTQPLSLDCGHSFCQACLTANHKKSMLDKGESSCPVCRISYQPENIRPNRHVANIVEKLREVKLSPEGQKVDHCARHGEKLLLFCQEDGKVICWLCERSQEHRGHHTFLTEEVAREYQVKLQAALEMLRQKQQEAEELEADIREEKASWKTQIQYDKTNVLADFEQLRDILDWEESNELQNLEKEEEDILKSLTNSETEMVQQTQSLRELISDLEHRLQGSVMELLQGVDGVIKRTENVTLKKPETFPKNQRRVFRAPDLKGMLEVFRELTDVRRYWVDVTVAPNNISCAVISEDKRQVSSPKPQIIYGARGRGTRYQTFVNFNYCTGILGSQSITSGKHYWEVDVSKKTAWILGVCAGFQPDAMCNIEKNENYQPKYGYWVIGLEEGVKCSAFQDSSFHTPSVPFIVPLSVIICPDRVGVFLDYEACTVSFFNITNHGFLIYKFSHCSFSQPVFPYLNPRKCGVPMTLCSPSS [human TRIM5α, 2-codon duplication at 332]”, the enrichment stood at 0.203 ± 0.11.

In turn, “MASGILVNVKEEVTCPICLELLTQPLSLDCGHSFCQACLTANHKKSMLDKGESSCPVCRISYQPENIRPNRHVANIVEKLREVKLSPEGQKVDHCARHGEKLLLFCQEDGKVICWLCERSQEHRGHHTFLTEEVAREYQVKLQAALEMLRQKQQEAEELEADIREEKASWKTQIQYDKTNVLADFEQLRDILDWEESNELQNLEKEEEDILKSLTNSETEMVQQTQSLRELISDLEHRLQGSVMELLQGVDGVIKRTENVTLKKPETFPKNQRRVFRAPDLKGMLEVFRELTDVRRYWVDVTVAPNNISCAVISEDKRQVSSPKPQIIYGARGRYQTFVNFNYCTGILGSQSITSGKHYWEVDVSKKTAWILGVCAGFQPDAMCNIEKNENYQPKYGYWVIGLEEGVKCSAFQDSSFHTPSVPFIVPLSVIICPDRVGVFLDYEACTVSFFNITNHGFLIYKFSHCSFSQPVFPYLNPRKCGVPMTLCSPSS [human TRIM5α, 1-codon deletion at 334]” displayed an enrichment of 0.349 ± 0.14.

In turn, “MASGILVNVKEEVTCPICLELLTQPLSLDCGHSFCQACLTANHKKSMLDKGESSCPVCRISYQPENIRPNRHVANIVEKLREVKLSPEGQKVDHCARHGEKLLLFCQEDGKVICWLCERSQEHRGHHTFLTEEVAREYQVKLQAALEMLRQKQQEAEELEADIREEKASWKTQIQYDKTNVLADFEQLRDILDWEESNELQNLEKEEEDILKSLTNSETEMVQQTQSLRELISDLEHRLQGSVMELLQGVDGVIKRTENVTLKKPETFPKNQRRVFRAPDLKGMLEVFRELTDVRRYWVDVTVAPNNISCAVISEDKRQVSSPKPQIIYGARGTARGTRYQTFVNFNYCTGILGSQSITSGKHYWEVDVSKKTAWILGVCAGFQPDAMCNIEKNENYQPKYGYWVIGLEEGVKCSAFQDSSFHTPSVPFIVPLSVIICPDRVGVFLDYEACTVSFFNITNHGFLIYKFSHCSFSQPVFPYLNPRKCGVPMTLCSPSS [human TRIM5α, 4-codon duplication at 331]” returned an enrichment of 0.468 ± 0.43.

With “MASGILVNVKEEVTCPICLELLTQPLSLDCGHSFCQACLTANHKKSMLDKGESSCPVCRISYQPENIRPNRHVANIVEKLREVKLSPEGQKVDHCARHGEKLLLFCQEDGKVICWLCERSQEHRGHHTFLTEEVAREYQVKLQAALEMLRQKQQEAEELEADIREEKASWKTQIQYDKTNVLADFEQLRDILDWEESNELQNLEKEEEDILKSLTNSETEMVQQTQSLRELISDLEHRLQGSVMELLQGVDGVIKRTENVTLKKPETFPKNQRRVFRAPDLKGMLEVFRELTDVRRYWVDVTVAPNNISCAVISEDKRQVSSPKPQIIYGARGTFNYCTGILGSQSITSGKHYWEVDVSKKTAWILGVCAGFQPDAMCNIEKNENYQPKYGYWVIGLEEGVKCSAFQDSSFHTPSVPFIVPLSVIICPDRVGVFLDYEACTVSFFNITNHGFLIYKFSHCSFSQPVFPYLNPRKCGVPMTLCSPSS [human TRIM5α, 7-codon deletion at 335]”, the enrichment is 0.762 ± 0.059.

Regarding “MASGILVNVKEEVTCPICLELLTQPLSLDCGHSFCQACLTANHKKSMLDKGESSCPVCRISYQPENIRPNRHVANIVEKLREVKLSPEGQKVDHCARHGEKLLLFCQEDGKVICWLCERSQEHRGHHTFLTEEVAREYQVKLQAALEMLRQKQQEAEELEADIREEKASWKTQIQYDKTNVLADFEQLRDILDWEESNELQNLEKEEEDILKSLTNSETEMVQQTQSLRELISDLEHRLQGSVMELLQGVDGVIKRTENVTLKKPETFPKNQRRVFRAPDLKGMLEVFRELTDVRRYWVDVTVAPNNISCAVISEDKRQVSSPKPQIIYGARGTFVNFNYCTGILGSQSITSGKHYWEVDVSKKTAWILGVCAGFQPDAMCNIEKNENYQPKYGYWVIGLEEGVKCSAFQDSSFHTPSVPFIVPLSVIICPDRVGVFLDYEACTVSFFNITNHGFLIYKFSHCSFSQPVFPYLNPRKCGVPMTLCSPSS [human TRIM5α, 4-codon deletion at 334]”, the enrichment was found to be 0.56 ± 0.21.

As to “MASGILVNVKEEVTCPICLELLTQPLSLDCGHSFCQACLTANHKKSMLDKGESSCPVCRISYQPENIRPNRHVANIVEKLREVKLSPEGQKVDHCARHGEKLLLFCQEDGKVICWLCERSQEHRGHHTFLTEEVAREYQVKLQAALEMLRQKQQEAEELEADIREEKASWKTQIQYDKTNVLADFEQLRDILDWEESNELQNLEKEEEDILKSLTNSETEMVQQTQSLRELISDLEHRLQGSVMELLQGVDGVIKRTENVTLKKPETFPKNQRRVFRAPDLKGMLEVFRELTDVRRYWVDVTVAPNNISCAVISEDKRQVSSPKPQIIYGARGTFVNFNYCTGILGSQSITSGKHYWEVDVSKKTAWILGVCAGFQPDAMCNIEKNENYQPKYGYWVIGLEEGVKCSAFQDSSFHTPSVPFIVPLSVIICPDRVGVFLDYEACTVSFFNITNHGFLIYKFSHCSFSQPVFPYLNPRKCGVPMTLCSPSS [human TRIM5α, 4-codon deletion at 335]”, the enrichment was determined as 0.56 ± 0.21.

Take “MASGILVNVKEEVTCPICLELLTQPLSLDCGHSFCQACLTANHKKSMLDKGESSCPVCRISYQPENIRPNRHVANIVEKLREVKLSPEGQKVDHCARHGEKLLLFCQEDGKVICWLCERSQEHRGHHTFLTEEVAREYQVKLQAALEMLRQKQQEAEELEADIREEKASWKTQIQYDKTNVLADFEQLRDILDWEESNELQNLEKEEEDILKSLTNSETEMVQQTQSLRELISDLEHRLQGSVMELLQGVDGVIKRTENVTLKKPETFPKNQRRVFRAPDLKGMLEVFRELTDVRRYWVDVTVAPNNISCAVISEDKRQVSSPKPQIIYGARGTGARGTRYQTFVNFNYCTGILGSQSITSGKHYWEVDVSKKTAWILGVCAGFQPDAMCNIEKNENYQPKYGYWVIGLEEGVKCSAFQDSSFHTPSVPFIVPLSVIICPDRVGVFLDYEACTVSFFNITNHGFLIYKFSHCSFSQPVFPYLNPRKCGVPMTLCSPSS [human TRIM5α, 5-codon duplication at 330]”: the enrichment came out at 0.739 ± 0.46.
